{
  "source": "the supplement of paper PMC8728848",
  "binders": {"B1": {"name": "Gal 7 (Homo sapiens) (protein)", "chain": "MSNVPHKSSLPEGIRPGTVLRIRGLVPPNASRFHVNLLCGEEGGSDAALHFNPRLDTSEVVFNSKEGGSWGREESGPGVPFGRGQPFEVLIIASDDGFKAVVGDAQYHHFRHRLPLARVRLVEVGGDVQLDSVRIF"}},
  "test_in_all_cases": "glycan array binding signal (z-score within array); higher = stronger binding",
  "details_in_all_cases": "glycan notation: IUPAC condensed, linker removed; mutation: R74S",
  "key": {"[1]": {"biological_target": "Fuc(a1-2)[GalNAc(b1-3)]Gal", "method_in_brief": "(§1)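 Negative Z-scores can be read as non-binding. The Z-score is calculated within each array and then averaged across arrays of one protein sequence at different concentrations or buffers and across linkers. Arrays, 3228 in all, were curated from the Consortium for Functional Glycomics database and kept only where the protein sequence was available.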"}, "Fuc(a1-3)GlcNAc": {"biological_target": "Fuc(a1-3)GlcNAc", "method_in_brief": "as §1"}, "[2]": {"biological_target": "Fuc(a1-3)[Gal(b1-4)]Glc6S", "method_in_brief": "as §1"}, "[3]": {"biological_target": "Fuc(a1-3)[Gal(b1-4)]GlcNAc", "method_in_brief": "as §1"}, "[4]": {"biological_target": "Fuc(a1-3)[Gal(b1-4)]GlcNAc(b1-2)Man", "method_in_brief": "as §1"}, "[5]": {"biological_target": "Fuc(a1-3)[Gal(b1-4)]GlcNAc(b1-2)Man(a1-3)[Fuc(a1-3)[Gal(b1-4)]GlcNAc(b1-2)Man(a1-6)]Man(b1-4)GlcNAc(b1-4)GlcNAc", "method_in_brief": "as §1"}, "[6]": {"biological_target": "Fuc(a1-3)[Gal(b1-4)]GlcNAc(b1-2)Man(a1-3)[Fuc(a1-3)[Gal(b1-4)]GlcNAc(b1-2)Man(a1-6)]Man(b1-4)GlcNAc(b1-4)[Fuc(a1-6)]GlcNAc", "method_in_brief": "as §1"}, "[7]": {"biological_target": "Fuc(a1-3)[Gal(b1-4)]GlcNAc(b1-3)Gal(b1-3)[Fuc(a1-4)]GlcNAc", "method_in_brief": "as §1"}, "[8]": {"biological_target": "Fuc(a1-3)[Gal(b1-4)]GlcNAc(b1-3)Gal(b1-4)[Fuc(a1-3)]GlcNAc", "method_in_brief": "as §1"}, "[9]": {"biological_target": "Fuc(a1-3)[Gal(b1-4)]GlcNAc(b1-3)Gal(b1-4)[Fuc(a1-3)]GlcNAc(b1-3)Gal(b1-4)[Fuc(a1-3)]GlcNAc", "method_in_brief": "as §1"}, "[10]": {"biological_target": "Fuc(a1-3)[Gal(b1-4)]GlcNAc(b1-3)GalNAc", "method_in_brief": "as §1"}, "[11]": {"biological_target": "Fuc(a1-3)[Gal(b1-4)]GlcNAc(b1-6)GalNAc", "method_in_brief": "as §1"}, "[12]": {"biological_target": "Fuc(a1-3)[Gal(b1-4)]GlcNAc(b1-6)[Gal(b1-3)GlcNAc(b1-3)]Gal(b1-4)Glc", "method_in_brief": "as §1"}, "[13]": {"biological_target": "Fuc(a1-3)[Gal(b1-4)]GlcNAc6S", "method_in_brief": "as §1"}, "[14]": {"biological_target": "Fuc(a1-3)[Gal3S(b1-4)]Glc", "method_in_brief": "as §1"}, "[15]": {"biological_target": "Fuc(a1-3)[Gal3S(b1-4)]GlcNAc", "method_in_brief": "as §1"}, "[16]": {"biological_target": "Fuc(a1-3)[Gal3S(b1-4)]GlcNAc6S", "method_in_brief": "as §1"}, "[17]": {"biological_target": "Fuc(a1-3)[GalNAc(b1-4)]GlcNAc", "method_in_brief": "as §1"}, "[18]": {"biological_target": "Fuc(a1-3)[GalNAc(b1-4)]GlcNAc6S", "method_in_brief": "as §1"}, "Fuc(a1-4)GlcNAc": {"biological_target": "Fuc(a1-4)GlcNAc", "method_in_brief": "as §1"}, "Fuc(b1-3)GlcNAc": {"biological_target": "Fuc(b1-3)GlcNAc", "method_in_brief": "as §1"}, "Gal(a1-2)Gal": {"biological_target": "Gal(a1-2)Gal", "method_in_brief": "as §1"}, "Gal(a1-3)Gal": {"biological_target": "Gal(a1-3)Gal", "method_in_brief": "as §1"}, "Gal(a1-3)Gal(b1-3)GlcNAc": {"biological_target": "Gal(a1-3)Gal(b1-3)GlcNAc", "method_in_brief": "as §1"}, "[19]": {"biological_target": "Gal(a1-3)Gal(b1-3)GlcNAc(b1-2)Man", "method_in_brief": "as §1"}, "[20]": {"biological_target": "Gal(a1-3)Gal(b1-3)GlcNAc(b1-2)Man(a1-3)[Gal(a1-3)Gal(b1-3)GlcNAc(b1-2)Man(a1-6)]Man(b1-4)GlcNAc(b1-4)GlcNAc", "method_in_brief": "as §1"}, "[21]": {"biological_target": "Gal(a1-3)Gal(b1-3)GlcNAc(b1-3)GalNAc", "method_in_brief": "as §1"}, "[22]": {"biological_target": "Gal(a1-3)Gal(b1-3)GlcNAc(b1-6)GalNAc", "method_in_brief": "as §1"}, "[23]": {"biological_target": "Gal(a1-3)Gal(b1-3)[Fuc(a1-4)]GlcNAc(b1-2)Man(a1-3)[Gal(a1-3)Gal(b1-3)[Fuc(a1-4)]GlcNAc(b1-2)Man(a1-6)]Man(b1-4)GlcNAc(b1-4)GlcNAc", "method_in_brief": "as §1"}, "Gal(a1-3)Gal(b1-4)Glc": {"biological_target": "Gal(a1-3)Gal(b1-4)Glc", "method_in_brief": "as §1"}, "Gal(a1-3)Gal(b1-4)GlcNAc": {"biological_target": "Gal(a1-3)Gal(b1-4)GlcNAc", "method_in_brief": "as §1"}, "[24]": {"biological_target": "Gal(a1-3)Gal(b1-4)GlcNAc(b1-2)Man", "method_in_brief": "as §1"}, "[25]": {"biological_target": "Gal(a1-3)Gal(b1-4)GlcNAc(b1-2)Man(a1-3)[Gal(a1-3)Gal(b1-4)GlcNAc(b1-2)Man(a1-6)]Man(b1-4)GlcNAc(b1-4)GlcNAc", "method_in_brief": "as §1"}, "[26]": {"biological_target": "Gal(a1-3)Gal(b1-4)GlcNAc(b1-3)GalNAc", "method_in_brief": "as §1"}, "[27]": {"biological_target": "Gal(a1-3)Gal(b1-4)GlcNAc(b1-6)GalNAc", "method_in_brief": "as §1"}, "[28]": {"biological_target": "Gal(a1-3)Gal(b1-4)[Fuc(a1-3)]GlcNAc", "method_in_brief": "as §1"}, "[29]": {"biological_target": "Gal(a1-3)Gal(b1-4)[Fuc(a1-3)]GlcNAc(b1-2)Man(a1-3)[Gal(a1-3)Gal(b1-4)[Fuc(a1-3)]GlcNAc(b1-2)Man(a1-6)]Man(b1-4)GlcNAc(b1-4)GlcNAc", "method_in_brief": "as §1"}, "Gal(a1-3)GalNAc": {"biological_target": "Gal(a1-3)GalNAc", "method_in_brief": "as §1"}, "[30]": {"biological_target": "Gal(a1-3)[Gal(a1-4)]Gal(b1-4)GlcNAc", "method_in_brief": "as §1"}, "[31]": {"biological_target": "Gal(a1-4)Gal(b1-3)GlcNAc(b1-2)Man(a1-3)[Gal(a1-4)Gal(b1-3)GlcNAc(b1-2)Man(a1-6)]Man(b1-4)GlcNAc(b1-4)GlcNAc", "method_in_brief": "as §1"}, "Gal(a1-4)Gal(b1-4)Glc": {"biological_target": "Gal(a1-4)Gal(b1-4)Glc", "method_in_brief": "as §1"}, "Gal(a1-4)Gal(b1-4)GlcNAc": {"biological_target": "Gal(a1-4)Gal(b1-4)GlcNAc", "method_in_brief": "as §1"}, "[32]": {"biological_target": "Gal(a1-4)Gal(b1-4)GlcNAc(b1-2)Man(a1-3)[Gal(a1-4)Gal(b1-4)GlcNAc(b1-2)Man(a1-6)]Man(b1-4)GlcNAc(b1-4)GlcNAc", "method_in_brief": "as §1"}, "[33]": {"biological_target": "Gal(a1-4)Gal(b1-4)GlcNAc(b1-3)Gal(b1-4)Glc", "method_in_brief": "as §1"}, "Gal(a1-4)GlcNAc": {"biological_target": "Gal(a1-4)GlcNAc", "method_in_brief": "as §1"}},
  "note": "This is one part of the list.",
  "data": [
    {"binder": "B1", "values": [
      {"measurement": "glycan array binding signal (z-score)", "setting": "[1]", "value": 0.008},
      {"measurement": "glycan array binding signal (z-score)", "setting": "Fuc(a1-3)GlcNAc", "value": -0.382},
      {"measurement": "glycan array binding signal (z-score)", "setting": "[2]", "value": 1.23},
      {"measurement": "glycan array binding signal (z-score)", "setting": "[3]", "value": -0.151},
      {"measurement": "glycan array binding signal (z-score)", "setting": "[4]", "value": 0.269},
      {"measurement": "glycan array binding signal (z-score)", "setting": "[5]", "value": -0.808},
      {"measurement": "glycan array binding signal (z-score)", "setting": "[6]", "value": 0.63},
      {"measurement": "glycan array binding signal (z-score)", "setting": "[7]", "value": 0.23},
      {"measurement": "glycan array binding signal (z-score)", "setting": "[8]", "value": 0.555},
      {"measurement": "glycan array binding signal (z-score)", "setting": "[9]", "value": -0.321},
      {"measurement": "glycan array binding signal (z-score)", "setting": "[10]", "value": -0.359},
      {"measurement": "glycan array binding signal (z-score)", "setting": "[11]", "value": 0.614},
      {"measurement": "glycan array binding signal (z-score)", "setting": "[12]", "value": 0.106},
      {"measurement": "glycan array binding signal (z-score)", "setting": "[13]", "value": 0.188},
      {"measurement": "glycan array binding signal (z-score)", "setting": "[14]", "value": 0.388},
      {"measurement": "glycan array binding signal (z-score)", "setting": "[15]", "value": -0.686},
      {"measurement": "glycan array binding signal (z-score)", "setting": "[16]", "value": 0.706},
      {"measurement": "glycan array binding signal (z-score)", "setting": "[17]", "value": -0.103},
      {"measurement": "glycan array binding signal (z-score)", "setting": "[18]", "value": -0.03},
      {"measurement": "glycan array binding signal (z-score)", "setting": "Fuc(a1-4)GlcNAc", "value": 0.052},
      {"measurement": "glycan array binding signal (z-score)", "setting": "Fuc(b1-3)GlcNAc", "value": 0.172},
      {"measurement": "glycan array binding signal (z-score)", "setting": "Gal(a1-2)Gal", "value": -0.586},
      {"measurement": "glycan array binding signal (z-score)", "setting": "Gal(a1-3)Gal", "value": -0.55},
      {"measurement": "glycan array binding signal (z-score)", "setting": "Gal(a1-3)Gal(b1-3)GlcNAc", "value": -0.429},
      {"measurement": "glycan array binding signal (z-score)", "setting": "[19]", "value": -0.53},
      {"measurement": "glycan array binding signal (z-score)", "setting": "[20]", "value": 0.885},
      {"measurement": "glycan array binding signal (z-score)", "setting": "[21]", "value": 0.122},
      {"measurement": "glycan array binding signal (z-score)", "setting": "[22]", "value": -0.463},
      {"measurement": "glycan array binding signal (z-score)", "setting": "[23]", "value": 1.56},
      {"measurement": "glycan array binding signal (z-score)", "setting": "Gal(a1-3)Gal(b1-4)Glc", "value": 0.28},
      {"measurement": "glycan array binding signal (z-score)", "setting": "Gal(a1-3)Gal(b1-4)GlcNAc", "value": -0.056},
      {"measurement": "glycan array binding signal (z-score)", "setting": "[24]", "value": -0.425},
      {"measurement": "glycan array binding signal (z-score)", "setting": "[25]", "value": 0.018},
      {"measurement": "glycan array binding signal (z-score)", "setting": "[26]", "value": -0.416},
      {"measurement": "glycan array binding signal (z-score)", "setting": "[27]", "value": -0.143},
      {"measurement": "glycan array binding signal (z-score)", "setting": "[28]", "value": -0.359},
      {"measurement": "glycan array binding signal (z-score)", "setting": "[29]", "value": 2.01},
      {"measurement": "glycan array binding signal (z-score)", "setting": "Gal(a1-3)GalNAc", "value": -0.024},
      {"measurement": "glycan array binding signal (z-score)", "setting": "[30]", "value": -0.461},
      {"measurement": "glycan array binding signal (z-score)", "setting": "[31]", "value": -0.347},
      {"measurement": "glycan array binding signal (z-score)", "setting": "Gal(a1-4)Gal(b1-4)Glc", "value": -0.09},
      {"measurement": "glycan array binding signal (z-score)", "setting": "Gal(a1-4)Gal(b1-4)GlcNAc", "value": -0.365},
      {"measurement": "glycan array binding signal (z-score)", "setting": "[32]", "value": -0.222},
      {"measurement": "glycan array binding signal (z-score)", "setting": "[33]", "value": -0.663},
      {"measurement": "glycan array binding signal (z-score)", "setting": "Gal(a1-4)GlcNAc", "value": -0.668}
    ]}
  ]
}
